From the supplement of paper PMC4166925
± gives the standard deviation of the averaged measurements. Over roughly 33,000 sequences, “E-score (dimensionless, -0.5 to 0.5)” has its median near -0.049; the highest 2% begin near 0.37. The list shows a part of the results.

What follows are sequences tested on T1, PmTbr T-box DNA-binding domain (GST fusion) (assay: PBM E-score of 8-mer (E-score (dimensionless, -0.5 to 0.5)); Tbr is Tbrain of the sea star Patiria miniata (Pm) or the sea urchin Strongylocentrotus purpuratus (Sp); higher = stronger binding preference; most listed sequences are background and not binding sites). Settings: the construct has about 5 more residues each side.
T1 sequence: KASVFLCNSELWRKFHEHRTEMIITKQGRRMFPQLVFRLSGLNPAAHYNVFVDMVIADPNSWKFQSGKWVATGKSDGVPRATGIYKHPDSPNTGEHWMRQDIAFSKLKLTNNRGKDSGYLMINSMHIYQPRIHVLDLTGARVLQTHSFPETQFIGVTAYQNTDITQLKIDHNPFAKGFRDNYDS
Summary of the method: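 Each ungapped 8-mer received an enrichment E-score from the Universal PBM Analysis Suite, averaged over duplicate arrays. The proteins were Tbr T-box DNA-binding domains, covering the whole T-box plus about five flanking residues, fused to GST and expressed in BL21 E. coli at 20 °C before glutathione affinity purification. Universal Agilent oligonucleotide arrays were made double-stranded by primer extension and incubated with 200 nM protein in PBS (pH 7.5). The arrays were then scanned and quantified, and every 8-mer was scored from probe intensities.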

| Sequence | PBM E-score of 8-mer |
| --- | --- |
| AATGGGGT | 0.093 ± 0.0032 |
| CTGGAGCC | -0.205 ± 0.047 |
| CAGATCTC | -0.217 ± 0.028 |
| AGGCTCCC | -0.137 ± 0.013 |
| ATTTAGGC | 0.0122 ± 0.022 |
| AACCAAAC | -0.147 ± 0.023 |
| AGCACACC | 0.322 ± 0.036 |
| ACCAAAAA | -0.124 ± 0.021 |
| GAGTGAAA | 0.16 ± 0.1 |
| GACGTCTC | -0.235 ± 0.013 |
| ATCGTGCC | -0.0417 ± 0.072 |
| TCCAACCA | -0.211 ± 0.067 |
| ATCTAGGG | -0.0863 ± 0.01 |
| CTGAGCAA | -0.173 ± 0.0042 |
| CCTTGCAC | 0.218 ± 0.032 |
| GAGCGTAC | -0.248 ± 0.05 |
| ATTGCCAC | 0.279 ± 0.013 |
| AGCGATTA | -0.0486 ± 0.00081 |
| GAACGTTC | 0.0063 ± 0.12 |
| AGCCGAAG | -0.104 ± 0.011 |
| ATCCATGA | -0.298 ± 0.032 |
| CAGGACCA | -0.117 ± 0.036 |
| CCGTGGCC | -0.129 ± 0.072 |
| CTGAAAAG | -0.0458 ± 0.018 |
| ATTATCCC | -0.08 ± 0.072 |

| Sequence | PBM E-score of 8-mer |
| --- | --- |
| ATGCGCAA | -0.0878 ± 0.083 |
| ACCAGCTA | 0.0355 ± 0.021 |
| ACTGCCCA | -0.0483 ± 0.017 |
| CGTGAAAG | 0.273 ± 0.013 |
| CCATAGGG | 0.016 ± 0.077 |
| CTAAGTGC | 0.237 ± 0.01 |
| TGCAAGCA | 0.017 ± 0.0014 |
| CGTCATTC | -0.064 ± 0.0071 |
| GTCTGCGA | 0.0222 ± 0.049 |
| AGATGATC | -0.0445 ± 0.035 |
| AGTCGTCG | 0.0279 ± 0.033 |
| CATGCCTC | -0.1979 ± 0.00083 |
| CATGCTCA | 0.00541 ± 0.032 |
| AGCCTTCG | -0.0545 ± 0.054 |
| CTAGCGGC | 0.04621 ± 0.00013 |
| GTAGCTAA | -0.0459 ± 0.12 |
| CAGGCAGA | -0.264 ± 0.089 |
| AGAGGGTG | 0.383 ± 0.011 |
| GCCGCGTA | -0.0412 ± 0.039 |
| AGTAGGCC | -0.261 ± 0.043 |
| AACTGGTC | -0.302 ± 0.037 |
| CGAGGATA | -0.123 ± 0.041 |
| GAAGCGAC | 0.0681 ± 0.066 |
| AAGCCTAT | -0.165 ± 0.013 |
| ATCGTGGA | -0.0947 ± 0.04 |

| Sequence | PBM E-score of 8-mer |
| --- | --- |
| GCCTCAAA | -0.28 ± 0.021 |
| AACCAAGG | -0.254 ± 0.027 |
| AAAGGCGT | 0.265 ± 0.059 |
| GCTAAACA | 0.0395 ± 0.097 |
| CTATGCCA | 0.0639 ± 0.042 |
| CTGCAGGC | -0.111 ± 0.025 |
| CAACCACG | 0.0872 ± 0.014 |
| GGTTATAA | -0.0586 ± 0.011 |
| AATACTGT | -0.024 ± 0.036 |
| AACCTGAT | -0.0679 ± 0.035 |
| CACCGGCG | 0.0568 ± 0.031 |
| GGCAGAGA | -0.156 ± 0.013 |
| CCAGCTTA | -0.0765 ± 0.032 |
| AATATAAG | -0.306 ± 0.005 |
| TGACGCAA | 0.104 ± 0.043 |
| AACTGCAT | -0.201 ± 0.029 |
| CAATCCTC | -0.0492 ± 0.042 |
| ACGAATCA | -0.0839 ± 0.036 |
| CGGCCATC | -0.132 ± 0.016 |
| AATATGCT | 0.0157 ± 0.011 |
| AGTGGGGG | -0.167 ± 0.015 |
| AGAAGTTG | 0.104 ± 0.03 |
| TAATGTGA | 0.244 ± 0.0076 |
| ATGGAGCC | -0.262 ± 0.049 |
| GTAGTTCA | -0.124 ± 0.098 |

| Sequence | PBM E-score of 8-mer |
| --- | --- |
| CAAGGCAC | -0.109 ± 0.0035 |
| CTGTGGAC | -0.104 ± 0.0043 |
| CCCCGGGC | -0.169 ± 0.02 |
| GTACCTGA | -0.259 ± 0.067 |
| TATAAGCA | -0.194 ± 0.072 |
| AAGCACTG | -0.0944 ± 0.03 |
| AACTCCTA | -0.0508 ± 0.039 |
| AGATATTG | -0.067 ± 0.026 |
| GAGGACTC | -0.29 ± 0.01 |
| CCGTTTGC | 0.0209 ± 0.077 |
| AGACGCAG | -0.11 ± 0.021 |
| CTTACCGC | -0.0899 ± 0.032 |
| ACTCAACA | 0.217 ± 0.016 |
| GGACCGCA | -0.126 ± 0.082 |
| CGTGAGGA | 0.142 ± 0.019 |
| CTACCAAC | -0.0221 ± 0.0059 |
| AGTTACCC | -0.0906 ± 0.018 |
| GACGCTGC | -0.109 ± 0.025 |
| GCCAATGA | 0.109 ± 0.018 |
| ACTAAAGA | -0.19 ± 0.064 |
| CAGTTTTA | 0.0526 ± 0.075 |
| ACCCTAGA | -0.0223 ± 0.011 |
| CAGTCCAC | 0.0964 ± 0.049 |
| CCAGGTAG | -0.0154 ± 0.0037 |
| CTTCAAAG | 0.0114 ± 0.059 |

| Sequence | PBM E-score of 8-mer |
| --- | --- |
| ATCAGGAT | -0.104 ± 0.035 |
| CAATTCGA | -0.0924 ± 0.0073 |
| GCTTATCC | 0.0416 ± 0.018 |
| ATGTACAG | 0.0352 ± 0.067 |
| CGACGTAG | -0.0817 ± 0.009 |
| ATCCGGAT | -0.204 ± 0.095 |
| AGAGATGC | -0.133 ± 0.027 |
| ATGTCCAG | -0.0643 ± 0.0044 |
| AGAATTTC | 0.0646 ± 0.03 |
| ATCCGGTA | -0.0515 ± 0.09 |
| ACAACCCT | 0.0544 ± 0.021 |
| ATTTGAAA | -0.25 ± 0.036 |
| ACCGTACG | 0.155 ± 0.072 |
| GGATCGAC | -0.0264 ± 0.071 |
| CCAAAGGA | -0.186 ± 0.024 |
| ACATCAAA | 0.091 ± 0.013 |
| AGAAGTCA | 0.0284 ± 0.021 |
| ATACTGTC | 0.0706 ± 0.013 |
| AGGCGCGC | 0.152 ± 0.021 |
| CTCCTGCA | -0.0599 ± 0.014 |
| ATGTTTAA | -0.0841 ± 0.085 |
| AGAGAACG | 0.12 ± 0.027 |
| ACAAAGGG | -0.0602 ± 0.048 |
| CGGCTACG | -0.00354 ± 0.0089 |
| GAGTCTAA | -0.171 ± 0.031 |

| Sequence | PBM E-score of 8-mer |
| --- | --- |
| CGACAGAA | 0.0988 ± 0.053 |
| GGCACACA | 0.17 ± 0.081 |
| CGTGTTAA | 0.409 ± 0.029 |
| CATCCGAG | -0.137 ± 0.0093 |
| CGTGCCAC | 0.274 ± 0.03 |
| GCTTTCAA | -0.149 ± 0.038 |
| ACAGGCTC | 0.0148 ± 0.018 |
| ATTGCTAG | 0.0494 ± 0.021 |
| GGAGCTCA | -0.0734 ± 0.021 |
| GGGGTAAC | -0.0702 ± 0.11 |
| CGGTTCAA | -0.33825 ± 2.1e-05 |
| AGCGTGGA | -0.0691 ± 0.051 |
| GCCAGGGA | -0.233 ± 0.004 |
| ATCACAAA | 0.0643 ± 0.013 |
| AGTCCTTA | -0.161 ± 0.024 |
| CCGTTAAA | 0.148 ± 0.013 |
| CTCAGAAC | 0.00484 ± 0.039 |
| CACAGCCG | -0.0675 ± 0.11 |
| AACATCGA | -0.0231 ± 0.048 |
| CAAATCGA | -0.031 ± 0.074 |
| ATACGTTC | -0.177 ± 0.057 |
| ACTCTATC | -0.0533 ± 0.053 |
| GGTGCTTA | 0.0849 ± 0.048 |
| GACGCCGC | -0.00907 ± 0.019 |
| ACCCGGCA | 0.102 ± 0.03 |

| Sequence | PBM E-score of 8-mer |
| --- | --- |
| CCGCAATA | -0.17 ± 0.032 |
| CAACAAAG | 0.0162 ± 0.028 |
| GATACGAA | -0.139 ± 0.035 |
| ACAGTACG | -0.1 ± 0.058 |
| ATGCGCAT | -0.0058 ± 0.033 |
| ATCGGGCG | -0.0185 ± 0.02 |
| CGATGAGC | -0.174 ± 0.012 |
| AATAGTAC | -0.0704 ± 0.049 |
| CGTACGAG | -0.098 ± 0.032 |
| CGTTTGAA | -0.0782 ± 0.0035 |
| CTATGAAG | -0.308 ± 0.038 |
| AAGGTGGC | 0.383 ± 0.021 |
| GCGTGAAC | 0.405 ± 0.021 |
| GCTCTGTA | -0.194 ± 0.091 |
| AGTAAAAA | -0.24 ± 0.0046 |
| CTACGCTC | -0.136 ± 0.019 |
| ATCTCCTC | -0.0533 ± 0.0073 |
| AGTAGGGA | -0.263 ± 0.03 |
| ACGGGGGG | -0.0813 ± 0.018 |
| AATGAACC | -0.089 ± 0.011 |
| ACCACCGT | 0.159 ± 0.013 |
| AATATTCC | -0.128 ± 0.04 |
